# Structures can show the parent of a compound that is named as a salt. This list holds what a sample rich in strong results left over.
# System: M. mycetomatis strain mm55
# Conditions: m. mycetomatis hyphae, 96 h, 2 µM
row,Structure (SMILES),% viability
1,"CN1c2ccccc2C(NCCCCCCC(=O)O)c2ccc(Cl)cc2S1(=O)=O (centres unmarked) [ONC0004261, tianeptine sodium salt]",66.06%
2,"CC(=O)[C@H]1CC[C@H]2[C@@H]3CC[C@H]4C[C@H](O)CC[C@]4(C)[C@H]3C(=O)C[C@]12C [ONC0002908, alfaxalone]",53.4%

# Reference: article PMC12670160, “A drug-repurposing screen of FDA- and EMA-approved drugs identifies two NF-κB inhibitors active against eumycetoma” (Journal of Antimicrobial Chemotherapy, 2025)
